From the RNAGym collection of RNA variant scans (doi:10.7554/elife.90254)
The source gives no read counts; variants with many changes may rest on few reads.

B1: LINE1-mini (parent)
chain: GGCAGAGCUCAACACAGCGUGGCAAAGUGGCUGUGGCUAGACUGCC

Variants of: B1
Assay: self-cleavage, relative activity (ratio to wild type); higher = more cleavage; in vitro, sequencing; the parent is a self-cleaving ribozyme
With GGCAGAGCUCACCACAGCGUGCCAAAGCGGCUGUGGCUAGACCGCC the self-cleavage was 0.01. Work on GGCAGAGCUCACCACAGCCUGGCAAAGUGGCUGUGGAAAGACUGCC yielded a self-cleavage of 0. With GGCAGAGCUCAGCGCAGUGUGGCAAAGUUGCGGUGGCUAGACUGCC the self-cleavage was 0.02. For GGCAGAGCUCAGCACGGCGUGGCAAAGUGGAUGUGGCUAGACUGCC, the self-cleavage was 0.23. Work on GGCAGAGCUCAGCUCAGCGUGGGAAAGUGGCUGUAGCUAGACUGCC yielded a self-cleavage of 0.02. GGCAGAGCUCAGCUCAGCGUGGCAAAGUGGCUCUGCCUAGACUGCC showed a self-cleavage of 0.06. Work on GGCAGAGCUCAGCCCAGUGUGGCAAAGUGUCUGUGGCUAGAUUGCC yielded a self-cleavage of 0.05. In the case of GGCAGAGCUCACCACAGCAUGGCAAAGUGGCUGUGGCUAGCCUGCC, the self-cleavage is reported as 0.01. For GGCAGAGCUCACCACAGCGUGACAAAGUGGCUGCGGCUAGACUGCC, the self-cleavage was 0.01. In the case of GGCAGAGCUCACCACAGCGUGGCAAAGAGGCUGUGUCCAGACUGAC, the self-cleavage is reported as 0. Variant GGCAGAGCUCACCACAGCGUGCCACAGUGGCUGUGGAUAGACUGCC has a self-cleavage of 0. With GGCAGAGCUCACCACAGCGUGGCAAAUUGGAUGUGGCUAGACUGCC the self-cleavage was 0.04. Variant GGCAGAGCUCACCACAGCGUGGCAAAGAUGCGGUGGCUAGACUGCC has a self-cleavage of 0.03. For GGCAGAGCUCAGCACUGCAUGGCGAAGUGGCUUUGGCUAGUGUGCC, the self-cleavage was 0.01. GGCAGAGCUCACCACAGCCUGGCAAAGUGGCUGUGGCUAGCCUGCA showed a self-cleavage of 0.01. For GGCAGAGCUCAGCACCGCGUGGCAAAGUGGCUGUGGCUAGACUGAC, the self-cleavage was 0.03. For GGCAGAGCUCAGCACAGCGUGGCGAACUGGCUGUGGCCAGACUGCC, the self-cleavage was 0.01. Work on GGCAGAGCUCAGCACUGCUUGGCAAAGUGGCUGUGGCUAGACUGCC yielded a self-cleavage of 0.03. Work on GGCAGAGCUCAGCGCAGCGUGGCAAAGUGACGGUGGCUAGACUGCC yielded a self-cleavage of 0.02. Variant GGCAGAGCUCACCACAGCGUGGCAAAGUGGCUCUGGCUAGACGGCC has a self-cleavage of 0. Variant GGCAGAGCUCACCACAGCGUGCCAAAGUGCCUGUGGCUAGACUGCA has a self-cleavage of 0.01. For GGCAGAGCUCACCACAGCGUGGCAAAGUGGCUGUGGCUAGACAGCU, the self-cleavage was 0.01. For GGCAGAGCUCAGCACUGCGUGGCACAGUGGCUGUGGCUAGACUGCC, the self-cleavage was 0.02. For GGCAGAGCUCACCACAGCGUGGCAAAGUUGCUGGGGCUAGACUGCC, the self-cleavage was 0.07. With GGCAGAGCUCACCACAGCGUGGCAAAUUGGCUGUGGCUAGAGUGCC the self-cleavage was 0.03. In the case of GGCAGAGCUCACCACAGCGUGGCAAAGUGGCUAUUCCUAGACUGCC, the self-cleavage is reported as 0.04. Work on GGCAGAGCUCACCACAGCGUGGCAAAGUGGCUGUGCCUAUACUUCC yielded a self-cleavage of 0. GGCAGAGCUCACCACAGCGUGGCAAAGUGGCUGCGGCUAGACUGCU gave a self-cleavage of 0.03. Variant GGCAGAGCUCACCACAGCGUGACAAAAUGGCUGUUUCUAGACUGCC has a self-cleavage of 0.02. With GGCAGAGCUCACCACAGCGUGGCAAAGUGGCGGUGACUAGACUGCC the self-cleavage was 0.01. Work on GGCAGAGCUCACCACAGCGUGGCAAAGUGUCUGUGGCUAGACUCCC yielded a self-cleavage of 0.07. With GGCAGAGCUCACCACAGCAUGGCAAAGUGGCUGCGCCUAGACUGCC the self-cleavage was 0.01. For GGCAGAGCUCACCACAGCGAGGCAAAGCCGCUGUGGCUAGACUGCC, the self-cleavage was 0. Variant GGCAGAGCUCACCACAUCGUGGCUAAGUGGCUGUGGCUAGACUGCC has a self-cleavage of 0.04. GGCAGAGCUCACCACAGCGUGAAAAAGUGGCUGUGGCUAGAUUGCC showed a self-cleavage of 0. Work on GGCAGAGCUCACCACAGCGGGGCAAAGUGGCUGUGGCUAAACUGCC yielded a self-cleavage of 0.04. GGCAGAGCUCACCACAGCGUGGCAAAGUGGCAGUGGCAAGACCGGC showed a self-cleavage of 0.01. For GGCAGAGCUCAGCACAGCGUGGCCAAGUGGCUGUGGCUAGACUGUC, the self-cleavage was 0.01. Variant GGCAGAGCUCAGCACAGCGUGGCCAAGUGGCUGUGGCUAGACUCCC has a self-cleavage of 0.02. For GGCAGAGCUCAGCCCAGCGUGGCAAAGUGGCUGUGGCUAUACUUCC, the self-cleavage was 0.01. GGCAGAGCUCACCACAGCAUGGGAAAGUGCCUGUGGCUAGACUGCC gave a self-cleavage of 0.01. GGCAGAGCUCACCACAGCGUGUCAAAGUGUAUGUGGCUAGACUGCC showed a self-cleavage of 0.01. In the case of GGCAGAGCUCAGCACAGCGUGGCGAAGUGGCUGUGGCUAGACUGCA, the self-cleavage is reported as 0.02. With GGCAGAGCUCACCACAGCGUGACAAAGUGGAUGUGGCUAGACUGCC the self-cleavage was 0.01. Variant GGCAGAGCUCACCACAGCGUGUCAAAGUGGCUGUGGCUAGAACGCC has a self-cleavage of 0.01. Work on GGCAGAGCUCACCACAGCGUGGCAAAGAGGCUGUGGGGAGACUGCC yielded a self-cleavage of 0.02. Variant GGCAGAGCUCACCACAGCGUAGCAAAUUGGCUGUGGCUAGACUGCC has a self-cleavage of 0.03. Variant GGCAGAGCUCACCACAGCUUGGCAAAGAGGCUGUGGCUAGACUGCC has a self-cleavage of 0. With GGCAGAGCUCACCACAACUUGGCAAAGUGGCUGUGGCUAGACUGCC the self-cleavage was 0.01. For GGCAGAGCUCACCACAUCAUGGCAAAGUGGCUGUGGUAAGACUGCA, the self-cleavage was 0.01. Work on GGCAGAGCUCAGCACGGCCUGGCAAAGUUGCUGUGGCUAGACUGCC yielded a self-cleavage of 0.03. With GGCAGAGCUCACCACAGCGUAGCAAAGUGGCAGUGGCUAGACUGCC the self-cleavage was 0. GGCAGAGCUCACCACAGCGUGGCAAAUUGGCGGUCGCUAGACUGCC gave a self-cleavage of 0.03. GGCAGAGCUCACCACAUCGUGGCAAAGUAGCUGUGGCAAGACUGCC gave a self-cleavage of 0.03. GGCAGAGCUCACCACAGCGUGGCAAAGCGGCUGUGGCUUGACUGCC gave a self-cleavage of 0.02. GGCAGAGCUCACCACAGCGAGGCAAAGUGGCUGUUACUAGACUGCC showed a self-cleavage of 0.01.
